The list shows a part of the results.
system: PF3D7_0420300 AP2 domain 1 (GST-tagged); assay: gcPBM binding intensity (ln(normalized median fluorescence intensity)); higher = stronger DNA binding
Method in brief: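 After 1 h on an Agilent 4 × 180k array of primer-extended double-stranded 36-bp intergenic genomic probes and negative controls, bound GST-tagged P. falciparum DNA-binding domains were detected with Alexa488 anti-GST antibody and scanned at 488 nm. The domains had been expressed in E. coli, and binding took place in 1× PBS with 1% milk, 0.2 mg/ml BSA, 0.5% salmon testes DNA and 0.03% Triton X-100. Binding intensity is the highest Masliner-normalised natural-log median intensity across replicate spots of either probe orientation.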

Going from “GGCATAAATATATGCACACACAAAAAAAAAAAAAAA [CACACA_site59]” to “ATATTGTTTTATATAGAACACACATAAAAATATATA [CACACA_site8314]”, the “gcPBM binding intensity (ln)” value rises from 9.34 to 9.39.

Going from “TTTTTTTTTTTAAAAAGTACACAATTAATTAATATA [XGTACX_site8494]” to “TATAAACATTATAAATGTACAAATATATATATATAT [XGTACX_site3218]”, the “gcPBM binding intensity (ln)” value rises from 8.75 to 9.28.

Compared with “TTATTGAAAAAAGAACAAAAAAAAAAAGAAAAATTA [XGTACX_negctrl_site438]”, “AAAATAAGAAATAGATGTACTTATAAATAAATACAA [XGTACX_site4441]” is higher in “gcPBM binding intensity (ln)” value: 9.09 for the first, 9.2 for the second.

First: GAAAGAATAAAATTTACACACATATATATATACATA [CACACA_site2250]
Second: ATATATATATATATATGTACTTATTTGAATACTAAA [XGTACX_site2330]
The “gcPBM binding intensity (ln)” value of the first is higher: 9.51 for the first, 9.01 for the second.

Going from “TCATTATATCATGGTAGTACTCATTAATAATACGTA [XGTACX_site8701]” to “GTTAATAAAAATATATGTACATAATTATTATGAAAA [XGTACX_site3030]”, the “gcPBM binding intensity (ln)” value rises from 9 to 9.12.

Compared with “AATATTATTTAGGAGCGTACGTTTTATTTACATATT [XGTACX_site5188]”, “TATATATTTTTTAAACCACACACAATATAGAGTATA [CACACA_site8106]” is higher in “gcPBM binding intensity (ln)” value: 9.4 for the first, 9.62 for the second.

Going from “ATATAGGTAAAAAGTATACACACGTTGACACATTCT [CACACA_site1199]” to “ATAATATAATTTTGCAGTACCCAAAAAACAAAATAA [XGTACX_site4827]”, the “gcPBM binding intensity (ln)” value falls from 9.59 to 9.38.

Going from “AATATGATATATATATGTACATATATATAATATAAT [XGTACX_site3072]” to “AAAGTATAATAATACACACACTTTAAAAGTTAAATG [CACACA_site7550]”, the “gcPBM binding intensity (ln)” value rises from 9.28 to 9.58.

First: AAAAGATGCGCATACACACAGATGAATAACAAAAAA [CACACA_site6865]
Second: GCACATTTTTTTATCACACATATAATTACAATATAA [CACACA_site5585]
The “gcPBM binding intensity (ln)” value of the first is higher: 9.74 for the first, 9.51 for the second.

Compared with “TTTCGGTTTTTTTTTATTTTTTTTTTTTTATTATTT [CACACA_negctrl_site335]”, “TACGTATGCCTGTGATGTACATATATATATACATAC [XGTACX_site4728]” is lower in “gcPBM binding intensity (ln)” value: 9.75 for the first, 9.36 for the second.

First: ATATAAATCAAAAACGCACACATAAATATTTATATA [CACACA_site2442]
Second: ATAAAAGAATAAATAAAACACATATATATATATATA [XGTACX_negctrl_site31]
The “gcPBM binding intensity (ln)” value of the first is higher: 9.66 for the first, 9.11 for the second.

Compared with “TTTTTTTTTTTTTTGGTGCACATAGAAATTCTAAAA [GTGCAC_site9809]”, “AAAAGAAAATAAGAAACACACAAAAATATATAAAAA [CACACA_site3697]” is higher in “gcPBM binding intensity (ln)” value: 8.78 for the first, 9.74 for the second.

Going from “TTCTTTGCTTTTCAAACACACAAAAGTTATTATATT [CACACA_site521]” to “TTATAAATGTATTTATGTACATATAAATATATATAA [XGTACX_site2970]”, the “gcPBM binding intensity (ln)” value falls from 9.41 to 8.94.

Going from “TTTTAAATATATGTGCTATTATATTAAGAGATGTAA [GTGCAC_negctrl_site560]” to “ATCTATAAATTTCCACGTACATATATATATATATAT [XGTACX_site4502]”, the “gcPBM binding intensity (ln)” value rises from 9.03 to 9.32.

First: CCTCTTTTTATTCTCACACACGTTTATATATAAAGT [CACACA_site4992]
Second: TTTTTTATTTTTGCGTGTACATAATAATGAATCTTC [XGTACX_site8077]
The “gcPBM binding intensity (ln)” value of the first is higher: 9.57 for the first, 9.11 for the second.

Going from “GAAATTTCCCATATTACACACATACTATGATATATA [CACACA_site5987]” to “CCTATTTATAAATACACACACATATATAAATAAATA [CACACA_site5629]”, the “gcPBM binding intensity (ln)” value rises from 9.66 to 9.81.

First: AAAAAACTATTATGTGCATGCACAAGTCAGGTAAAT [TGCATGCA_site791]
Second: AAAAAGAAATCCAATACACACCTTCAAAATGGGTAT [CACACA_site4978]
The “gcPBM binding intensity (ln)” value of the first is higher: 9.54 for the first, 9.53 for the second.

Going from “TATTTATAGATATATACACACATATTTATATTTATA [CACACA_site6441]” to “CATTAAATATATAAATGTACAAATATATTTTTCAAA [XGTACX_site4429]”, the “gcPBM binding intensity (ln)” value falls from 9.39 to 8.98.

Compared with “TTGTTCATATTTTTTATTGTGTTAATATTTATAAAA [GTGCAC_negctrl_site423]”, “TTAATGTAGAGAAAATGTACATTTTATTAAAACAAT [XGTACX_site6376]” is lower in “gcPBM binding intensity (ln)” value: 9.38 for the first, 9.19 for the second.

First: ATATTTTGATAATATTGTACAAAAACATTAAAATGT [XGTACX_site8361]
Second: AACATTATGTTTATTTGTACATATAAATATATGTAA [XGTACX_site7389]
The “gcPBM binding intensity (ln)” value of the first is higher: 9.07 for the first, 8.98 for the second.

Going from “TCTTTTATGATATTTACACACAAACGTGAGATAGCT [CACACA_site2312]” to “CTCTACGAATTCATAGTGCAAAGAGCTAATTTTTTC [GTGCAC_site9710]”, the “gcPBM binding intensity (ln)” value falls from 9.46 to 8.94.

First: GATCATTCAGTTTTATCACACACAATCAAACATATA [CACACA_site8882]
Second: ATGCGTTAATCTATATATATTATGTATAGATTTTCA [CACACA_negctrl_site1650]
The “gcPBM binding intensity (ln)” value of the first is higher: 9.64 for the first, 9.2 for the second.

“AACATATTTATGATGTGTACCTACATAATAGAATTT [XGTACX_site141]” and “TTTTTTAATATATTATTATAAATATTTTTTATGTGT [GTGCAC_negctrl_site712]” are the same in “gcPBM binding intensity (ln)” value: 9.26 for the first, 9.26 for the second.

Compared with “CATAATGTAAATAAGTGTACACATATATAATACATA [XGTACX_site3108]”, “ATCGGTAATATTAACACACACATTTATATATATTTA [CACACA_site1084]” is higher in “gcPBM binding intensity (ln)” value: 9.34 for the first, 9.74 for the second.

First: TTTTGTAGATATTGAAGTACAAAAAAAATGTAAAAG [XGTACX_site5905]
Second: TATATATCGCCCTTCACACACACACGGATATAAATA [CACACA_site7221]
The “gcPBM binding intensity (ln)” value of the first is lower: 9.25 for the first, 10.1 for the second.

First: ATAATAAATATATAATGTACATATTATGTTCTTTAT [XGTACX_site8655]
Second: CGCTCTTATAAATGTTGTACATAAAACTGTTCATTA [XGTACX_site3409]
The “gcPBM binding intensity (ln)” value of the first is lower: 9.15 for the first, 9.22 for the second.

Going from “ATTTTGATGATGTATGCACACATTGAAAATGAGAAA [CACACA_site2916]” to “ACAACATATGTTATCACACACATATAAATATAAATA [CACACA_site7038]”, the “gcPBM binding intensity (ln)” value rises from 9.03 to 9.54.

First: ATATATATATATATATGTACATATTTGATTTTTCTT [XGTACX_site8171]
Second: TTTTTTTTTTTTTTTTGTACATATAAAAATACGTAA [XGTACX_site6003]
The “gcPBM binding intensity (ln)” value of the first is higher: 8.96 for the first, 8.6 for the second.

Going from “CACACGCACAGACACACACACACACGGATATAAATA [CACACA_site6301]” to “TCACTACATTTTGGACGTACACAACTTGATATATTG [XGTACX_site4775]”, the “gcPBM binding intensity (ln)” value falls from 10.2 to 9.38.

Going from “AAATCTTAACTCTATGCACACATAAAAGTATATAAA [CACACA_site8709]” to ATGATATACTTGAGTGTGCACAAACTATTACTTACA, the “gcPBM binding intensity (ln)” value rises from 9.18 to 9.42.

First: GATAATAATAAACAACCACACACAAAAAAACAAAAA [CACACA_site9074]
Second: TGCTATAATTTATATACACACAAATATATACACATA [CACACA_site9356]
The “gcPBM binding intensity (ln)” value of the first is higher: 9.88 for the first, 9.45 for the second.

Compared with “CAATGTTGTACATACACACACACAAAAAAAAAATAA [CACACA_site2407]”, “TTCAAATTTCCACATACACACCTTGTAGATCTATAT [CACACA_site6270]” is lower in “gcPBM binding intensity (ln)” value: 9.98 for the first, 9.46 for the second.

First: ATAAAAAAACACACTCGTACACACATATTTTCTTTC [XGTACX_site6565]
Second: ATGAATAATTAATGATGTACTTAAAAAAAAAAATAT [XGTACX_site6346]
The “gcPBM binding intensity (ln)” value of the first is higher: 9.84 for the first, 9.26 for the second.

Going from “AAAAAAAAAAAAAAAAAAAAAAAAAAAAAAACATAT [GTGCAC_negctrl_site580]” to “GTTAATATCTTGAACAGTACTCTAAATATCTACATA [XGTACX_site5358]”, the “gcPBM binding intensity (ln)” value falls from 9.46 to 9.21.

Going from “ATATATTATATTGAATGTACATATATATATTATATA [XGTACX_site8445]” to “TAGCCCATATGGAATACACACTGAAAATAAAAAAAG [CACACA_site5799]”, the “gcPBM binding intensity (ln)” value rises from 9.07 to 9.41.

First: TTACAATAAATTATAGTGCAATATTTTATTTAATAT
Second: ACTACATAATATTAACGTACATATTATAATACTTGC [XGTACX_site954]
The “gcPBM binding intensity (ln)” value of the first is lower: 9.01 for the first, 9.33 for the second.

First: ATATAACACATTAGTTGTACTATTTTTAATTGGTGA [XGTACX_site961]
Second: TACATAATAACATGTACACACATTCTTCTATAAATG [CACACA_site4061]
The “gcPBM binding intensity (ln)” value of the first is lower: 9.19 for the first, 9.42 for the second.

Going from “CATTAAAAAGAAAGTTCACACACATATATATGACGG [CACACA_site8836]” to “ACATAATAAAAATGACGTACAATTTTTTTTTTTCAT [XGTACX_site8340]”, the “gcPBM binding intensity (ln)” value falls from 9.74 to 9.14.

Going from “TTTATATTATTAGAAACACACATTAGATTAAAATTA [CACACA_site3286]” to “TATTTAATTACATGAACACACATTATATATTTTTAA [CACACA_site5615]”, the “gcPBM binding intensity (ln)” value rises from 9.15 to 9.33.

Compared with “TATATATATATGTGCACACCAATTGTATGTAATATA [CACACA_site3889]”, “TATATATATATATATACACACAAAAAAATAAATTCT [CACACA_site98]” is higher in “gcPBM binding intensity (ln)” value: 9.47 for the first, 9.57 for the second.

Going from “TACTTTTCATCTTCTTAACACACAAAAAAAAAAAAA [CACACA_site9290]” to “ATTTATTTTAATAATTGTACATGTTATTTTATATAT [XGTACX_site2667]”, the “gcPBM binding intensity (ln)” value rises from 8.97 to 9.31.

Compared with “ATCATTTTTAAAGGAACACACAAAAAAAGTTATAAT [CACACA_site6761]”, “ATATATTATTATAACTGTACTTTTTTTGTGGTTAAT [XGTACX_site8266]” is lower in “gcPBM binding intensity (ln)” value: 9.52 for the first, 9.44 for the second.

Going from “TATGCGTATATATAAATACACACCAAATGTTAATAT [CACACA_site1713]” to “CCATTTACATTGTGAAGTACTAAAAAAAAATGTAGA [XGTACX_site7882]”, the “gcPBM binding intensity (ln)” value falls from 9.35 to 9.22.

First: ACAAGGAATATAAAAAGTACATAAAATACATAAAAA [XGTACX_site1217]
Second: TATGGATGTATTCATACATGCACACGTACATATTTA [TGCATGCA_site991]
The “gcPBM binding intensity (ln)” value of the first is higher: 9.56 for the first, 9.32 for the second.

For “ATAATTTGATGGTTAACACACATATATATTATATAT [CACACA_site2449]”, the “gcPBM binding intensity (ln)” value was 9.49.
